The text below walks through data of article PMC4336329 (PLoS ONE, 2015).

Among all 310,000 compounds or so, about 14,000 (4.5%) showed an effect of 50% or more. Effects have a minus sign here. Some of the results follow.
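Also: peak tail current of the secondary pulse compared with the same well before compound.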

human ether-à-go-go-related gene (hERG) potassium channel, sequence (Q12809 whole entry, looked up): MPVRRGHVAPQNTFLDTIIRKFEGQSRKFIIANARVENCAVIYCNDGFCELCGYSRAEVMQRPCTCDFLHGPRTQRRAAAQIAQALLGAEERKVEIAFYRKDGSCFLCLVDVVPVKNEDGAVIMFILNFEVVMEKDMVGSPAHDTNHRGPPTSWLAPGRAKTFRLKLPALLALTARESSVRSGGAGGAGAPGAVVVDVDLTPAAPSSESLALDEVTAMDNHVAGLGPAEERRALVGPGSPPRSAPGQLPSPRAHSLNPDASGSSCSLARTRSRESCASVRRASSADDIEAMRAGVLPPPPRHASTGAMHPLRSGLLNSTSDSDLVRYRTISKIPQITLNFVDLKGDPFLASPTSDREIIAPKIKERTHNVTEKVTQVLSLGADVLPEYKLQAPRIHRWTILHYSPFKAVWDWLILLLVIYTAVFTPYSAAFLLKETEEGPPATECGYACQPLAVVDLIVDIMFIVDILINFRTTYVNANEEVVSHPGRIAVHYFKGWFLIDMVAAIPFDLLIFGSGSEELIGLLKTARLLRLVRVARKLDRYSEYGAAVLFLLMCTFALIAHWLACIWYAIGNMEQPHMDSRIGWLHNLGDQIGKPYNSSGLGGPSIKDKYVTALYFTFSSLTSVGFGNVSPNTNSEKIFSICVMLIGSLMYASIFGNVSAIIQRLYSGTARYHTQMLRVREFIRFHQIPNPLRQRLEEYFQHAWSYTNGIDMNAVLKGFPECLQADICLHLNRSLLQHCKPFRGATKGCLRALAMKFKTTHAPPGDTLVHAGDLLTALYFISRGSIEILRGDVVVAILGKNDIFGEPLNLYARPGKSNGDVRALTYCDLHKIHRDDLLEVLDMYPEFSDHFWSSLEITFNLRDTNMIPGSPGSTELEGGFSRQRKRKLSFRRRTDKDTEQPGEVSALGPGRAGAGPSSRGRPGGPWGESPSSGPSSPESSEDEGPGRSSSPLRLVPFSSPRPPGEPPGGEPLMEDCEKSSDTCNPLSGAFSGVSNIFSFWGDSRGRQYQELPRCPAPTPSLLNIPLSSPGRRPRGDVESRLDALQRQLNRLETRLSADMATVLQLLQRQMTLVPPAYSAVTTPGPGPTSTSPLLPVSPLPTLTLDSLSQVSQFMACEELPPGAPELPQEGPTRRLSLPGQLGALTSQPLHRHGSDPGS

The assay has as its target human ether-à-go-go-related gene (hERG) potassium channel (human, UniProt Q12809). Nature of the assay: primary screen, population patch clamp on CHO cells stably expressing hERG.
Take `CC1(C)C2CCC1(C)C(OC(=O)CNc1ccccc1)C2` (centres unmarked): the “hERG current change (%, negative = inhibition) at 10uM” value is listed as 4.73%. The figure for `CCC(Oc1ccccc1)C(=O)NCc1cccnc1` (centres unmarked) is 6.28%; for `O=C(COc1ccc2c(C(F)(F)F)cc(=O)oc2c1)NCc1cccs1` it is 12.9%; for `CCN(CC(=O)Nc1ccc(NC(C)=O)cc1)C(=O)c1sc2nc3n(c(=O)c2c1C)CCC3` it is 2.85%. The figure for `COc1ccc(C(=O)ON=C2CCN(C)CC2)cc1.Cl` is 12.8%; for `CCN(CC)S(=O)(=O)c1ccc(Cl)c(C(=O)Nc2nnc(C)s2)c1` it is -2.96%; for `Cc1cccc([C@@H](NC(=O)OC(C)(C)C)C(=O)OC(C)(C)C)c1` it is -15.6%. In the case of `CSC1=NC(NCCCO)c2c(sc3c2CC(C)(C)OC3)N1` (centres unmarked), the “hERG current change (%, negative = inhibition) at 10uM” value is -7.67%.

As for `COc1cc2cc(C(c3nnnn3C3CCCC3)N3CCc4ccccc43)c(=O)[nH]c2cc1OC` (centres unmarked), the “hERG current change (%, negative = inhibition) at 10uM” value stood at 16%.

Consider `CCn1c(Cc2ccccc2)nnc1SCC(=O)NC(C)(C)C`, for which the “hERG current change (%, negative = inhibition) at 10uM” value was -5.03%.

With `O=C(Nc1ncccn1)c1cc(-c2ccc(F)cc2)nc2ccccc12`, the “hERG current change (%, negative = inhibition) at 10uM” value was -13.5%. Turning to `CCOC(=O)C1=C(CCc2ccccc2)NC(=O)NC1c1ccc2ccccc2c1` (centres unmarked), the “hERG current change (%, negative = inhibition) at 10uM” value is recorded as 10.1%. The figure for `CCN1C(=O)[C@@H]2[C@@H](c3ccc(-c4ccc(Cl)c(Cl)c4)c(OC)c3)N3CCC[C@@]3(C(=O)OC)[C@@H]2C1=O.O=C(O)C(F)(F)F` is -3.85%; for `Cc1ccc(NC(=O)CCCNC(=O)c2ccc(Cl)cc2)c(Br)c1` it is 15.1%. Take `CCC1CCCCN1CCCNC(=O)c1ccc2c(=O)n(CCOC)c(=O)[nH]c2c1` (centres unmarked): the “hERG current change (%, negative = inhibition) at 10uM” value is reported as 23.5%. For `C=CCn1c(SCC(=O)Nc2cc(C)on2)nnc1C1COc2ccccc2O1` (centres unmarked), the “hERG current change (%, negative = inhibition) at 10uM” value is listed as -13.2%. The figure for `COc1ccc(OCC(O)CNS(=O)(=O)c2cccs2)cc1` (centres unmarked) is 17.9%. Then `COc1ccc(/C=N/NC(=S)NC2CCS(=O)(=O)C2)cc1` (centres unmarked), with 8.74%. The figure for `O=Cc1c(NCCc2ccc(F)cc2)c2ccccc2[nH]c1=O` is -29%; for `COc1ccc(C(=O)NCc2nnc(SCC(=O)NCc3ccco3)o2)cc1OC` it is 15.3%; for `CN(C)CCCNC(=O)CCc1ncc(C(F)(F)F)cc1Cl` it is 4.48%.

As to `COc1ccc(-c2cc(C(=O)N(C)Cc3ccccc3)c3ccccc3n2)cc1`, the “hERG current change (%, negative = inhibition) at 10uM” value is -4.41%.

With `COc1cnn(Cc2ccccc2)c(=O)c1SCc1ccccc1`, the “hERG current change (%, negative = inhibition) at 10uM” value was -22.9%.

In the case of `CCOc1ccc2nc(SCC(=O)NNC(=O)c3ccco3)c(C)cc2c1`, the “hERG current change (%, negative = inhibition) at 10uM” value came out at 4.33%.

`O=C(CSc1nnc(Cc2ccccc2)n1-c1ccccc1)NNC(=O)Cc1ccccc1`: the “hERG current change (%, negative = inhibition) at 10uM” value is reported as -4.04%. On to `Cc1c(NC(=O)C(C)OC(=O)Cc2ccc(F)cc2)c(=O)n(-c2ccccc2)n1C` (centres unmarked), for which the “hERG current change (%, negative = inhibition) at 10uM” value came to 8.45%. Regarding `c1ccc(C2=NC(c3ccccc3)N=C(c3ccccc3)N2)cc1`, the “hERG current change (%, negative = inhibition) at 10uM” value is on record as -6.66%. Then `Cc1ccc(SCCNC(=O)c2ccc(C)c(S(=O)(=O)Nc3cccc(C)c3)c2)cc1`, with 15.5%; and `O=C(CSC1=NCCS1)Nc1ccc2ccccc2c1`, with 8.49%; and `CCCC(=O)NC(c1ccc(OC)cc1)c1ccc2cccnc2c1O` (centres unmarked), with -33.9%.

For the molecule `Cc1ccc(CCNC(=O)C2CCN(S(=O)(=O)N3CCOCC3)CC2)cc1`, the “hERG current change (%, negative = inhibition) at 10uM” value worked out at 3.73%. The figure for `Cc1c(NC(=O)CSc2nc3ccccc3[nH]2)c(=O)n(-c2ccccc2)n1C` is 1.28%; for `COc1ccc(-n2nnnc2SCC(=O)c2ccc3c(c2)OCCO3)cc1` it is 20.6%.

For the molecule `COC(=O)c1ccc(COC(=O)C(CCSC)NC(=O)COc2ccccc2)cc1` (centres unmarked), the “hERG current change (%, negative = inhibition) at 10uM” value was -9.2%. The figure for `COc1ccc(NS(=O)(=O)c2cc(NC(=O)c3nc4nc(C)cc(C)n4n3)ccc2C)cc1` is -5.99%; for `Cc1cc(/C=N/n2cnnc2)c(C)n1-c1ccccc1` it is -4.02%; for `CC(C)C(NC(=O)Nc1ccccc1)C(=O)Nc1cccc(S(=O)(=O)N(C)C)c1` (centres unmarked) it is 7.26%. In the case of `CC1CCN(C(=O)CCN2C(=O)C3C4C=CC(C4)C3C2=O)CC1` (centres unmarked), the “hERG current change (%, negative = inhibition) at 10uM” value stood at 12.8%.

With `C=CCN(C(=O)OC(C)(C)C)S(=O)(=O)NCc1ccccc1`, the “hERG current change (%, negative = inhibition) at 10uM” value is recorded as -4.15%. The figure for `Cc1cc(C)c(NC(=O)c2cc(S(=O)(=O)N3CCOCC3)ccc2F)c(C)c1` is 1.16%; for `Cc1nn(CC(=O)N(C)c2c(N)n(Cc3ccccc3)c(=O)[nH]c2=O)c(C)c1[N+](=O)[O-]` it is -4.6%; for `Cc1ccc(NC(=O)NC(=O)N(c2ccccc2)S(C)(=O)=O)cc1` it is 7.89%. For the molecule `Cc1ccc(CNC(=O)CS(=O)(=O)c2ccccc2)cc1`, the “hERG current change (%, negative = inhibition) at 10uM” value is 8.4%. `CCOC(=O)C1=C(C)SC2=NS(=O)(=O)CCN21`: the “hERG current change (%, negative = inhibition) at 10uM” value was 11.7%. With `CCCCCc1ccc(-c2cn(CCCOCc3ccccc3)nn2)cc1`, the “hERG current change (%, negative = inhibition) at 10uM” value is 1.95%.

In the case of `CC(=O)c1cn(Cc2ccccc2)c(=O)[nH]c1=O`, the “hERG current change (%, negative = inhibition) at 10uM” value is recorded as 4.02%. The figure for `O=C(Nc1cc2c3c(c1)CC(=O)N3CCC2)c1cccc(F)c1` is -10%. For the molecule `O=C1NCCCC1C(=O)Nc1ccccc1C(F)(F)F` (centres unmarked), the “hERG current change (%, negative = inhibition) at 10uM” value is listed as -3.53%. Take `CC(=O)Nc1ccc([As](=O)(O)c2ccc([N+](=O)[O-])cc2)cc1`: the “hERG current change (%, negative = inhibition) at 10uM” value is -11.8%. Then `Cc1cnc(C(=O)NCc2ccc(F)cc2)cn1`, with 10.4%; and `Cc1nn(CC(=O)N2CCN(C)CC2)c(=O)c2c1sc1ccccc12`, with -6.99%. Regarding `CCOc1ccc2c(C)c(Cl)c(=O)oc2c1`, the “hERG current change (%, negative = inhibition) at 10uM” value is on record as -3.01%. In the case of `Nn1c(SCC(=O)N2CCc3ccccc3C2)nnc1-c1cccs1`, the “hERG current change (%, negative = inhibition) at 10uM” value is on record as -22.8%. Then `CC(C)c1c(C(=O)N/N=C/c2ccoc2)nnn1-c1nonc1N`, with 5.84%; and `O=C(NC1CCCC1)C(c1cccnc1)N(C(=O)c1csnn1)c1ccc(F)cc1` (centres unmarked), with -13.3%. The figure for `COc1cc(/C=C2\CCC/C(=C\c3ccc(O)c(OC)c3)C2=O)ccc1O` is 9.33%; for `CC(=O)c1cc2c(cc1NC(=O)CCNC(=O)c1ccccc1Cl)OCO2` it is -9.06%. Then `CC(C)OCCCNC(=O)c1ccc(NC(=O)C2=CSCCO2)cc1`, with 17.5%; and `CCOC(=O)C(=CNc1cc(C)ccc1C)C(=O)OCC`, with -1.26%; and `CCCCOC(=O)c1ccc(NC(=O)CSc2nncn2C)cc1`, with -4.57%. In the case of `O=C(NCc1ccc(N2CCCC2=O)cc1)Nc1ccccc1`, the “hERG current change (%, negative = inhibition) at 10uM” value is recorded as 14.5%. Consider `O=C(Oc1ccccc1/C=C\C(=O)c1cc2ccccc2o1)c1ccccc1`, for which the “hERG current change (%, negative = inhibition) at 10uM” value is 12.3%. Take `COC(=O)c1scc(S(=O)(=O)c2ccccc2)c1N`: the “hERG current change (%, negative = inhibition) at 10uM” value is 14.9%. Then `O=C(O)c1cccnc1SC1CC(=O)N(c2cccc(C(F)(F)F)c2)C1=O` (centres unmarked), with 5.2%.

Consider `COc1ccc(C(=O)NC2CC(C)(C)Cc3c2cnn3-c2ccccc2C)o1` (centres unmarked), for which the “hERG current change (%, negative = inhibition) at 10uM” value is reported as -30.5%. On to `COC(=O)c1c(NC(=O)COc2ccc(Cl)cc2)sc2c1CC(C)(C)NC2(C)C`, for which the “hERG current change (%, negative = inhibition) at 10uM” value was 8.29%. Then `CCn1ccnc1CN(C)C(=O)c1ccc2nc(Cc3ccc(OC)cc3)oc2c1`, with -45.7%; and `CCN1CCN(c2nc(S(=O)(=O)c3ccc(C)cc3)c(Cl)s2)CC1.Cl`, with -30.7%. The figure for `O=C(CC(c1ccccc1)c1ccccc1)OCn1nnc2ccccc2c1=O` is 10.1%. Consider `COc1cccc(-c2nc(CS(=O)(=O)CC(=O)NCc3ccccc3)c(C)o2)c1`, for which the “hERG current change (%, negative = inhibition) at 10uM” value is listed as -15.2%.

For `Cc1ccc2cc(CN(CC3CCCO3)C(=O)c3cccs3)c(=O)[nH]c2c1` (centres unmarked), the “hERG current change (%, negative = inhibition) at 10uM” value is -38.8%.

Turning to `Clc1ccccc1CN1CCN(c2ccccc2)CC1`, the “hERG current change (%, negative = inhibition) at 10uM” value turned out to be 18.8%.

For the molecule `Cc1cc(C)cc(OCc2nc(-c3cccnc3)no2)c1`, the “hERG current change (%, negative = inhibition) at 10uM” value was 0.615%. As to `Cn1c(=O)c2c(nc(CN3CCc4ccccc4C3)n2Cc2ccccc2)n(C)c1=O`, the “hERG current change (%, negative = inhibition) at 10uM” value was -17.5%.

Take `O=c1c2cc(N3CCOCC3)ccc2[nH]c(=S)n1CCCN1CCCC1`: the “hERG current change (%, negative = inhibition) at 10uM” value was -4.98%. In the case of `COc1cccc(CC(NC(C)=O)C(=O)NC2CCN(S(=O)(=O)c3ccc(C)cc3)CC2)c1OC` (centres unmarked), the “hERG current change (%, negative = inhibition) at 10uM” value was found to be 17.8%.

As for `NS(=O)(=O)c1ccc(CNC(=O)CC23CC4CC(CC(C4)C2)C3)cc1`, the “hERG current change (%, negative = inhibition) at 10uM” value is -5.69%. The figure for `Cc1ccc(NS(=O)(=O)c2ccc3[nH]c(=O)[nH]c3c2)c(C)c1` is 23.4%; for `CCOC(=O)C1NN=C(C(=O)c2ccc(C)cc2)C1c1ccc(C)cc1` (centres unmarked) it is -34.9%. The figure for `Cc1nc(NC(=O)COC(=O)C2=NNC(=O)CC2)c(Cl)cc1Cl` is -1.01%; for `COC(=O)C1=CN(CC2CCCO2)C=C(C(=O)OC)C1c1ccsc1` (centres unmarked) it is -11.5%. With `CCOc1ccc(C2c3[nH]c4ccccc4c3CCN2Cc2cn(CC)nc2C)cc1` (centres unmarked), the “hERG current change (%, negative = inhibition) at 10uM” value is recorded as -63.6%.

Consider `Cc1ccc(CC(=O)N/N=C/c2ccc(OC(=O)c3ccc([N+](=O)[O-])cc3)cc2)cc1`, for which the “hERG current change (%, negative = inhibition) at 10uM” value stood at 5.7%.

In the case of `N#Cc1c(N)sc2c1CCN(C(=O)OCc1ccccc1)C2`, the “hERG current change (%, negative = inhibition) at 10uM” value is on record as -14.9%. In the case of `Cc1cccc(NC(=O)c2ccc(S(=O)(=O)NCc3cccnc3)cc2)c1C`, the “hERG current change (%, negative = inhibition) at 10uM” value is given as -6.29%. Regarding `COc1cc(C(=O)n2nc(C)cc2C)ccc1O`, the “hERG current change (%, negative = inhibition) at 10uM” value was -8.08%.
